Experimental data taken from publication PMC12863670.
These are yes or no findings as the source states them, for the method shown. Binding seen in cells or lysates may run through a third protein. Some binding calls cover weakened binding; strength is not graded here. Tags and fused reporters may be left off the sequences shown.

By UniProt entry, the sequences of proteins in these tests, tags left out. Where a name states a change or a piece, a line headed by the entry shows the natural chain unless it says otherwise.
UniProt Q9UGP4: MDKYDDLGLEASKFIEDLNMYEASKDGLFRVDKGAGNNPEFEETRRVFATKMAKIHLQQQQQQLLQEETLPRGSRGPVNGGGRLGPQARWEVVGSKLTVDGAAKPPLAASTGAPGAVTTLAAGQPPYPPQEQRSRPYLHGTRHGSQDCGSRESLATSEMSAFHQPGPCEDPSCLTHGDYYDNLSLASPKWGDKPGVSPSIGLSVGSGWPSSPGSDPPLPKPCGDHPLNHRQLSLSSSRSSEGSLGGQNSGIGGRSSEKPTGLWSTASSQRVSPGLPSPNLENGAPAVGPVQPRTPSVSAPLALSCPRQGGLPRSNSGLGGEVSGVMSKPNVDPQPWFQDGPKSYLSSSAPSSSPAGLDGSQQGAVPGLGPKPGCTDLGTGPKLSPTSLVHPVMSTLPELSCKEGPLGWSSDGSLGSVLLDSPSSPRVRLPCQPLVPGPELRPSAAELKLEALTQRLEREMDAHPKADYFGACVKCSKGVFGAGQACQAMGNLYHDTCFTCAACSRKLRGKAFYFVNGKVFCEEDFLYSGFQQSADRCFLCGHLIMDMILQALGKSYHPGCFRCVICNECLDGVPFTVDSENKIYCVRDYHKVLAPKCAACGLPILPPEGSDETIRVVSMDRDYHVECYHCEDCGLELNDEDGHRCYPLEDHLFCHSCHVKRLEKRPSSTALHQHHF

Assays:
[1] = molecular target: T1, LATS1-3xMyc (full-length LATS1) (UniProt O95835); assay: co-IP; lysates of separately transfected HEK293A cells combined (2:1, 1 h, 4°C); LATS1-3xMyc precipitated with anti-Myc on Protein G Dynabeads, GFP- or V5-tagged LIMD1 variants detected by blot; IgG control; buffer 20 mM Tris-HCl pH 7, 137 mM NaCl, 2 mM EDTA, 1% NP-40, 10% glycerol
T1 sequence: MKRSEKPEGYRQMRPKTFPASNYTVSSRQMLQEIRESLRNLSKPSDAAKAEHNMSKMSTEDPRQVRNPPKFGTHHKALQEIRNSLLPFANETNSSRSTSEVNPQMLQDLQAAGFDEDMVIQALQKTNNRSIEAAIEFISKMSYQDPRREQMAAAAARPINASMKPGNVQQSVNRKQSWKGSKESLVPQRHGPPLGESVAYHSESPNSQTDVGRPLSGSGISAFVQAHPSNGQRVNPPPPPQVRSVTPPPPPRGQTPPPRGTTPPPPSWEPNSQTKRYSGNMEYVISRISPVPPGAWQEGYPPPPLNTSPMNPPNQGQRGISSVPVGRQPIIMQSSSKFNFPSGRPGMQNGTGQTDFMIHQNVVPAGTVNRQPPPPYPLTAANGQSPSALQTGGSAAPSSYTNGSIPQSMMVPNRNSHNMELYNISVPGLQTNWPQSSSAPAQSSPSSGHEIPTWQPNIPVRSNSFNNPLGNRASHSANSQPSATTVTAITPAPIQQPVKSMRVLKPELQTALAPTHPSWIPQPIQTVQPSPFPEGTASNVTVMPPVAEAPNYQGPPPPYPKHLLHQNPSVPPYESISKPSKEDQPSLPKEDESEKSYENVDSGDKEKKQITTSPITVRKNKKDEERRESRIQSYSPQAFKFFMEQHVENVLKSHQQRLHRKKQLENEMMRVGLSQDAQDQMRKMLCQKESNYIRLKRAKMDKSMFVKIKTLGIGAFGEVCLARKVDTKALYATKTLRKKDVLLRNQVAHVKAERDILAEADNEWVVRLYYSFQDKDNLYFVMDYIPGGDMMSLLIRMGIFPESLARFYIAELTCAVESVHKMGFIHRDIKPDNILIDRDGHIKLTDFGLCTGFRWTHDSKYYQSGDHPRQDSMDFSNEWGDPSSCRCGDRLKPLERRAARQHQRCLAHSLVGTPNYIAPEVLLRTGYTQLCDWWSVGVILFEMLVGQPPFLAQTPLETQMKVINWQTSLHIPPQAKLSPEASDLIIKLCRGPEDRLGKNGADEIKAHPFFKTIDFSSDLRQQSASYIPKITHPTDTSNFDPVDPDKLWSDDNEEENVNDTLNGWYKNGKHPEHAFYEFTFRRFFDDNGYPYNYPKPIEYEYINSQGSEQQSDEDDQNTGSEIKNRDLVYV

[2] = molecular target: T2, LATS2-FLAG (full-length LATS2) (UniProt Q9NRM7); assay: co-IP; lysates of separately transfected HEK293A cells combined (2:1, 1 h, 4°C); LATS2-FLAG precipitated with anti-FLAG on Protein G Dynabeads, GFP-LIMD1 variants detected by anti-GFP blot; IgG control; buffer 20 mM Tris-HCl pH 7, 137 mM NaCl, 2 mM EDTA, 1% NP-40, 10% glycerol
T2 sequence: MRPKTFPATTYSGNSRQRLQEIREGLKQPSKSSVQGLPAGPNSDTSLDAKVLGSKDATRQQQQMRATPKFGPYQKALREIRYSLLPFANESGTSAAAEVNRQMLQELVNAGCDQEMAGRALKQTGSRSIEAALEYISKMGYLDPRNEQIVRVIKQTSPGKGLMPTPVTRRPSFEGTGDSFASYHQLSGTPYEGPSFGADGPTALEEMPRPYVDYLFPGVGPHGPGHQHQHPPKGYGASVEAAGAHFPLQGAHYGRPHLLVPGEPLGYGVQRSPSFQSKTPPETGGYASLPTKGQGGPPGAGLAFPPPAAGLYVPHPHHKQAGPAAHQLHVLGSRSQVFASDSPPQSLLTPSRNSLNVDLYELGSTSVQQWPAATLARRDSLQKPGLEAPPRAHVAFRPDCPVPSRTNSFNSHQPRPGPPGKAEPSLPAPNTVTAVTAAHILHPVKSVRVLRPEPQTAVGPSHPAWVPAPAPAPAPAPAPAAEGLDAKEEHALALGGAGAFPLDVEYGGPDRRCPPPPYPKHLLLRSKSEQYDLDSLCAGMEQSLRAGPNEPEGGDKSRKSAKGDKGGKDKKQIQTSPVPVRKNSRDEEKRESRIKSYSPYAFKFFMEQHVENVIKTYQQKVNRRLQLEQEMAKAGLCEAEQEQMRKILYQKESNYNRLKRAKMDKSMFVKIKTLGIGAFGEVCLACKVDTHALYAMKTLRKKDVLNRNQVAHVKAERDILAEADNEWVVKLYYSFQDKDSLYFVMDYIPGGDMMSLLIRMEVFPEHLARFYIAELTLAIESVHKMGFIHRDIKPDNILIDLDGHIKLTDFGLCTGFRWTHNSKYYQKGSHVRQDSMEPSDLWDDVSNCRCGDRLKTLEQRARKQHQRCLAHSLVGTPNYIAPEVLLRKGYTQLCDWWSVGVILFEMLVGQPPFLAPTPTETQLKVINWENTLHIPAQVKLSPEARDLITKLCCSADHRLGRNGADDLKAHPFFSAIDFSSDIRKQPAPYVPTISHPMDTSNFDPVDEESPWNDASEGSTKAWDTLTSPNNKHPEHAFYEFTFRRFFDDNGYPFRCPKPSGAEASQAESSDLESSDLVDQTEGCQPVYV

## V5-tagged wild-type LIMD1 (from UniProt Q9UGP4 1-676)
[1]
  binding: binds

## GFP-LIMD1-(1-467), amino-terminal half of LIMD1 (from UniProt Q9UGP4 1-467) (domain or fragment)
[2]
  binding: no binding
[1]
  binding: no binding

## GFP-LIMD1-(468-676), carboxy-terminal half of LIMD1 with the three LIM domains (from UniProt Q9UGP4 468-676) (domain or fragment)
[2]
  binding: binds
[1]
  binding: binds

## V5-tagged LIMD1 Y646A (from UniProt Q9UGP4 1-676)
[1]
  binding: binds
